Assay results published in a collection of fitness landscapes (doi:10.1038/s41467-024-54723-y).
In all, about 18,000 sequences were measured (“TetR repression strength (sort-seq, GFP reporter)”: median about 0.23, highest 2% from about 0.68 on). Some of the results follow.

Target: TetR (class B, Tn10) (UniProt P04483)
Test: TetR repression strength (sort-seq, GFP reporter) (relative to tetO2 = 1); higher = stronger repression
Details: E. coli
Summary of the method: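 In LB with 50 µg/mL chloramphenicol, E. coli SIG10-MAX holding a low-copy library with eight randomized operator positions between a constitutive promoter and sfGFP, plus constitutive TetR, grew for 5 h at 37 °C. FACS then sorted 10^6 cells into 13 fluorescence bins for Illumina sequencing of each bin. Repression strength equals the top bin index plus one less the read-weighted mean bin, normalized to the unaltered operator. Values from three independent transformations were averaged when reads were ≥30 in every replicate and the CV was ≤0.5.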

Sequence of UniProt P04483 (P04483 whole entry): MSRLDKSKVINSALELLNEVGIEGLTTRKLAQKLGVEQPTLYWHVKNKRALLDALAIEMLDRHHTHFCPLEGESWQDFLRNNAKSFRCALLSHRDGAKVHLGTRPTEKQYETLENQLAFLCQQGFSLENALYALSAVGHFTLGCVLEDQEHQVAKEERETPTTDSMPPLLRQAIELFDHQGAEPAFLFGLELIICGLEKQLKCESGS

Sequence	TetR repression strength
TCCCGCCGAGTCGGGGAGA	0.191
TCCCAACTAGTTGTGGAGA	0.388
TCCCTCAAAGTCAACGAGA	0.356
TCCCAATCAGTCATTGAGA	0.448
TCCCGGGCAGTGAATGAGA	0.315
TCCCAGCCAGTGCAAGAGA	0.475
TCCCGGATAGTGGGCGAGA	0.164
TCCCCATAAGTGGTGGAGA	0.161
TCCCTACTAGTGCGTGAGA	0.405
TCCCCGGGAGTAACAGAGA	0.332
TCCCGTATAGTCCGGGAGA	0.12
TCCCTTTAAGTTCACGAGA	0.199
TCCCCGTAAGTTGGGGAGA	0.262
TCCCGGGGAGTAACGGAGA	0.108
TCCCACATAGTACGAGAGA	0.00864
TCCCCAGCAGTAGATGAGA	0.253
TCCCATAGAGTCGGCGAGA	0.142
TCCCCTACAGTTACGGAGA	0.104
TCCCTGAAAGTAATGGAGA	0.239
TCCCTGGTAGTGGGCGAGA	0.276
TCCCCCTAAGTTTCGGAGA	0.294
TCCCCATAAGTCTCCGAGA	0.354
TCCCAAAGAGTGCGTGAGA	0.272
TCCCGAACAGTGTGTGAGA	0.161
TCCCCTCGAGTGCGGGAGA	0.0179
TCCCGACTAGTCTTAGAGA	0.304

Sequence	TetR repression strength
TCCCAGCTAGTGCAAGAGA	0.388
TCCCTAGCAGTCGCTGAGA	0.0944
TCCCTTTAAGTGCGGGAGA	0.254
TCCCAAGGAGTTTGTGAGA	0.286
TCCCACGGAGTCTGCGAGA	0.104
TCCCATCGAGTTTAGGAGA	0.179
TCCCTACTAGTTGCCGAGA	0.326
TCCCTATGAGTGTCGGAGA	0.132
TCCCCCTCAGTATGAGAGA	0.514
TCCCATTTAGTGGCAGAGA	0.215
TCCCTGACAGTAACGGAGA	0.192
TCCCCGTCAGTCACCGAGA	0.65
TCCCTATCAGTAAAGGAGA	0.319
TCCCGGCCAGTGAGGGAGA	0.268
TCCCGGAGAGTTATTGAGA	0.278
TCCCGACCAGTGGTAGAGA	0.297
TCCCCTCAAGTGGGTGAGA	0.24
TCCCAACCAGTCTGGGAGA	0.104
TCCCAGGGAGTGACAGAGA	0.294
TCCCCGGTAGTTTTGGAGA	0.253
TCCCCACTAGTAAGGGAGA	0.266
TCCCGAGCAGTGCGGGAGA	0.473
TCCCGTGTAGTGCTGGAGA	0.267
TCCCTCGAAGTGCTGGAGA	0.281
TCCCAGAGAGTAGCAGAGA	0.294
TCCCAAAGAGTTTGGGAGA	0.357

Sequence	TetR repression strength
TCCCACTAAGTGTGAGAGA	0.253
TCCCAGACAGTATTGGAGA	0.299
TCCCGTGCAGTTCGGGAGA	0.295
TCCCCCGCAGTTCCAGAGA	0.328
TCCCCATCAGTTTGGGAGA	0.269
TCCCGTCAAGTTGGAGAGA	0.211
TCCCTAGGAGTAGCGGAGA	0.193
TCCCAGATAGTTTATGAGA	0.167
TCCCTACTAGTCCTCGAGA	1.12
TCCCGAGGAGTGATGGAGA	0.35
TCCCGAACAGTGTAGGAGA	0.0968
TCCCAAGGAGTTTCTGAGA	0.319
TCCCCGTCAGTCATGGAGA	0.12
TCCCCTCAAGTACGTGAGA	0.227
TCCCATTTAGTGACGGAGA	0.255
TCCCAAGAAGTGGTTGAGA	0.184
TCCCGGGGAGTCGTTGAGA	0.482
TCCCGACGAGTGATAGAGA	0.619
TCCCGTAAAGTCTCCGAGA	0.269
TCCCCGCTAGTTGGGGAGA	0.0652
TCCCGAAGAGTAGGTGAGA	0.304
TCCCAACAAGTTGGGGAGA	0.256
TCCCGAACAGTTAATGAGA	0.395
TCCCAGCTAGTGTGGGAGA	0.141
TCCCAAGCAGTCCAAGAGA	0.513
TCCCGCATAGTAATGGAGA	0.384

Sequence	TetR repression strength
TCCCGGGCAGTTCGGGAGA	0.23
TCCCAGTCAGTAGGCGAGA	0.16
TCCCTCGTAGTAAGCGAGA	0.128
TCCCTAGTAGTAAGGGAGA	0.196
TCCCGACAAGTAGTGGAGA	0.347
TCCCTCCGAGTAGGTGAGA	0.222
TCCCTATCAGTAGGGGAGA	0.529
TCCCTATCAGTCCGGGAGA	0.445
TCCCCGTAAGTTGTAGAGA	0.111
TCCCCCTCAGTGTCGGAGA	0.169
TCCCAGTAAGTTCATGAGA	0.326
TCCCAGGGAGTTCTGGAGA	0.274
TCCCATACAGTCATTGAGA	0.0677
TCCCTGCAAGTGTGCGAGA	0.0377
TCCCGTCAAGTGTAGGAGA	0.138
TCCCGAGTAGTTGTAGAGA	0.262
TCCCGGAGAGTTGCGGAGA	0.189
TCCCAGGGAGTGAGAGAGA	0.211
TCCCGGCTAGTTCCGGAGA	0.172
TCCCCTGCAGTGCGCGAGA	0.0207
TCCCACTGAGTGATTGAGA	0.279
TCCCCGGGAGTTGGAGAGA	0.508
TCCCTTGAAGTTGTCGAGA	0.0283
TCCCGTGTAGTATAAGAGA	0.212
TCCCATGTAGTTTGGGAGA	0.203
TCCCGGCGAGTGGGGGAGA	0.193

Sequence	TetR repression strength
TCCCATGGAGTGCGGGAGA	0.415
TCCCCAAGAGTATGGGAGA	0.124
TCCCTTCCAGTGTTTGAGA	0.385
TCCCATAGAGTTGAGGAGA	0.138
TCCCTCGGAGTAGTTGAGA	0.14
TCCCATGAAGTTTTTGAGA	0.0346
TCCCTGTTAGTGATGGAGA	0.0597
TCCCTATCAGTACGGGAGA	0.226
TCCCGGGTAGTACGGGAGA	0.0586
TCCCTCCGAGTATTGGAGA	0.261
TCCCTGGCAGTGCGGGAGA	0.0871
TCCCGCGCAGTCGTAGAGA	0.241
TCCCGGCAAGTGCATGAGA	0.453
TCCCAGTCAGTTAGAGAGA	0.00901
TCCCGTTCAGTTTGTGAGA	0.145
TCCCGTGCAGTTACGGAGA	0.183
TCCCGGTGAGTACGGGAGA	0.291
TCCCGATGAGTGGGTGAGA	0.203
TCCCTGTTAGTGGACGAGA	0.343
TCCCTTCTAGTTAAGGAGA	0.283
TCCCTCTTAGTGATAGAGA	0.345
TCCCGTAGAGTAATGGAGA	0.344
TCCCAGCTAGTGAAAGAGA	0.441
TCCCAAAAAGTTTGGGAGA	0.095
TCCCCTGTAGTCGGTGAGA	0.19
TCCCCCCGAGTCGACGAGA	0.239
